# Experimental data taken from paper PMC4336329 (PLoS ONE, 2015).
# The whole screen tested about 310,000 compounds, of which about 2,200 (0.71%) showed an effect of 50% or more. The effect is printed as a negative number. Some of the results follow.
# Target: human ether-à-go-go-related gene (hERG) potassium channel (human, UniProt Q12809)
# Test: primary screen, population patch clamp on CHO cells stably expressing hERG
# human ether-à-go-go-related gene (hERG) potassium channel, sequence (Q12809 whole entry, looked up): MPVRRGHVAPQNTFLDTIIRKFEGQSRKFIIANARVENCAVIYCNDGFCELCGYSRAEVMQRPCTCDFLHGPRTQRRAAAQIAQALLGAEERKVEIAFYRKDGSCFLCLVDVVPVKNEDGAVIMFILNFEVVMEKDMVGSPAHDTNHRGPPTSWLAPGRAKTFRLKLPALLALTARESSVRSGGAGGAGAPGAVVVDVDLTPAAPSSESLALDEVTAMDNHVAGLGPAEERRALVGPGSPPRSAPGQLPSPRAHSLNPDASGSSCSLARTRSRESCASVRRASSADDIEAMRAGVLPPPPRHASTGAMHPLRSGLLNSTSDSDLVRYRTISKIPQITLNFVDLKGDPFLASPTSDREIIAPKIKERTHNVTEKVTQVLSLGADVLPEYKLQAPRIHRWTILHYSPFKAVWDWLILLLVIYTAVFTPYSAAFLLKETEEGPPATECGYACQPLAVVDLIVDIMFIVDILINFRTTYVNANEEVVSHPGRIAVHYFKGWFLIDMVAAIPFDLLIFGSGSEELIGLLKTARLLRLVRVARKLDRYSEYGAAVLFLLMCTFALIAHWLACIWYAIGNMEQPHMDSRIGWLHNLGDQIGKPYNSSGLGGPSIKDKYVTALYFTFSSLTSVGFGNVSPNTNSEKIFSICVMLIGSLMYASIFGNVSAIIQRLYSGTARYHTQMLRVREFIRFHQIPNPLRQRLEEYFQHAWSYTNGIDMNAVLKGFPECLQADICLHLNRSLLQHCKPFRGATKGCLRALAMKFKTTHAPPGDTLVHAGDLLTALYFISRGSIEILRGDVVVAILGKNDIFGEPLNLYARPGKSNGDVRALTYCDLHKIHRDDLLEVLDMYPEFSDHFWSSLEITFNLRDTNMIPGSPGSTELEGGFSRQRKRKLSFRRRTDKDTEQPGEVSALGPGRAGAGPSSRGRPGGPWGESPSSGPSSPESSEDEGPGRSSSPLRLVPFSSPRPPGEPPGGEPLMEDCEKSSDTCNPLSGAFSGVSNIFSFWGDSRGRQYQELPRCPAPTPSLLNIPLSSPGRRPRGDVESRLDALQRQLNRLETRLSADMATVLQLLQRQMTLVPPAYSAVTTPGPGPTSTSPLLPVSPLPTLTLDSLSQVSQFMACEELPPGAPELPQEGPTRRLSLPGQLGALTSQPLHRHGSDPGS
row,SMILES,"hERG current change (%, negative = inhibition) at 1uM [%]"
1,Cc1nnc(N(C(=O)c2cnccn2)c2ccccc2)s1,19.8
2,CC1(C)C(=O)Nc2ccccc2N1C(=O)CN1C(=O)c2ccccc2C1=O,-1.3
3,Cc1ccccc1NS(=O)(=O)c1cc2c3c(c1)C(C)C(=O)N3CCC2 (stereo not drawn),11.3
4,CC(C)CCNC(=O)CCn1nc(-c2ccccc2)ccc1=O,-18.4
5,Cc1nn(C(C)C(=O)NC2CCCCCC2)c(=O)c2nn(-c3ccccc3)c(C)c12 (stereo not drawn),6.73
6,COc1cccc(C(C(=O)NC(C)(C)C)N(C(=O)CCC(=O)Nc2cc(C)on2)C(C)(C)C)c1OC (stereo not drawn),-0.281
7,Cc1cccc(C(=O)Nc2ccc(N3CCN(S(C)(=O)=O)CC3)cc2)c1,15.3
8,CCOc1cc(C(=O)NCc2ccc(-c3nc4ccccc4o3)cc2)cc(OCC)c1OCC,2.79
9,CC(C)(C)OC(=O)NCCc1nnc(S(=O)(=O)Cc2ccc(Cl)cc2Cl)o1,-7.89
10,COc1ccc(NC(=O)/C=C/c2cccc(C(F)(F)F)c2)cn1,12.5
11,Cc1ccc(C)c(C(C)NC(=O)C2CC=CCC2C(=O)O)c1 (stereo not drawn),11.3
12,CCCN(C(=O)COC(=O)C12CCC(=O)N1c1ccccc1S2)c1c(N)n(Cc2ccccc2)c(=O)[nH]c1=O (stereo not drawn),11.1
13,COC(=O)c1ccc(Nc2cc(C)nc(-c3ccccc3O)n2)cc1,14.7
14,NC(=O)NC(=O)CSc1cccc(C(F)(F)F)c1,13
15,Cn1nnnc1SCC(=O)N1CCN(S(=O)(=O)c2ccccc2)CC1,8.02
16,Cc1ccc2c(c1)C1CN(C)CCC1N2C(=O)c1cccc(S(=O)(=O)N(C)C)c1.c1ccccc1 (stereo not drawn),5.4
17,COc1cccc(CN(C)C(=O)c2[nH]c(C)c(C(C)=O)c2C)c1OC,13.3
18,CCOC(=O)c1cc(NC(=O)NCc2ccco2)c(C)nc1C,8.63
19,CC1CN(S(=O)(=O)c2ccc(C(=O)Nc3sccc3C(N)=O)cc2)CC(C)O1 (stereo not drawn),0.0412
20,O=C(NCc1ccccc1)C1=C[C@@H](c2ccccc2)C[C@@H](OCCCCO)O1,-3.48
21,CCOC(=O)CNc1nc(C#N)nc(N2CCOCC2)n1,9.03
22,CCn1c2ccccc2c2cc(NC(=O)c3ccco3)ccc21,2.16

row,SMILES,"hERG current change (%, negative = inhibition) at 1uM [%]"
1,CC(=O)c1cc2c(cc1N/C(=N/S(=O)(=O)c1ccc(Br)cc1)c1ccccc1)OCO2,13.7
2,CC1CCN(S(=O)(=O)c2cccc(C(=O)Nc3nccs3)c2)CC1,2.66
3,CCOC(=O)Oc1c(OC)cc(C(=O)O[C@@H]2C[C@@H]3CN4CCc5c([nH]c6cc(OC)ccc56)[C@H]4C[C@@H]3[C@H](C(=O)OC)[C@H]2OC)cc1OC,10.8
4,Cc1cccc(NC(=O)c2cc(NC(=O)C3CCCCC3C(=O)O)ccc2N2CCOCC2)c1 (stereo not drawn),10.6
5,COc1ccc(Cl)cc1NC(=O)CN(C)C(=O)c1n[nH]c2ccccc12,5.21
6,C=C(C)c1sc(-c2ccccc2)nc1C,-7.65
7,COc1ccc(C2Nc3cccc4cccc(c34)N2)cc1Br,8.67
8,Cc1ccccc1N1C(=O)/C(=C/c2ccco2)C(=O)NC1=S,11.1
9,COc1ccc(CCNc2nc3ccccc3n3nnnc23)cc1OC,5.27
10,O=[N+]([O-])c1cccc(C(=NCc2ccccc2)NO)c1,15.5
11,O=C(O)c1ccccc1C(=O)c1ccc(Br)s1,16
12,COc1cc(/C=N/NC(=O)c2ccncc2)ccc1OC(C)=O,10.6
13,COc1ccc(S(=O)(=O)n2ccc(-c3ccc4c(c3)CCC(C)(C)O4)n2)cc1,5.81
14,CC(Oc1ccccc1)C(=O)NC1CC(C)(C)NC(C)(C)C1 (stereo not drawn),9.76
15,COc1cccc(CNC(=O)CCCC(=O)Nc2cccc([N+](=O)[O-])c2)c1,0.52
16,O=C(NC(=S)NC1CCCCCCCCCCC1)c1cccnc1,5.03
17,COCCn1c(SCC(=O)NCCc2ccccc2)nnc1-c1ccco1,-3.3
18,COc1cc(C)c(CNc2cc(C)cc(C)c2)cc1C,9.11
19,CC(C)(C)c1cccc(P(=O)(c2ccccc2)c2ccccc2)c1O,11.7
20,CC(C)c1ccccc1OCC(O)CN1CCN(S(=O)(=O)c2ccc([N+](=O)[O-])cc2)CC1.O=C(O)C(=O)O (stereo not drawn),5.64
21,COC(=O)c1sc(S(=O)(=O)N2CCCCC2)c(C(=O)OC)c1C,0.311
22,COc1ccc(/C=C2/SC(=S)N(NS(=O)(=O)c3ccc(C)cc3)C2=O)cc1,22.1

row,SMILES,"hERG current change (%, negative = inhibition) at 1uM [%]"
1,CC(C)CC(=O)Nc1cccc(-c2cn3ccsc3n2)c1,8.82
2,CN(C)c1nc(N(C)C)nc(N(C#N)CCCl)n1,-0.143
3,CCN(CC)CCn1c(SCC(=O)NCc2ccccc2)nc2c(sc3ccccc32)c1=O,0.187
4,COc1cccc(C(=O)CC(C(=O)O)c2ccc(F)cc2)c1 (stereo not drawn),2.31
5,O=C1/C(=C/c2cccnc2)Oc2cc(OS(=O)(=O)c3ccccc3)ccc21,-0.883
6,COc1ccc(-c2c(C)n([O-])c3c([n+]2=O)CCCC3)cc1OC,11.5
7,CN(C)S(=O)(=O)c1ccc(-c2cn3ccccc3n2)cc1,8.62
8,O=C(c1ccccc1F)n1c2c(c3ccccc31)CCCC2,20.6
9,CCN(C(=O)CSc1nnc(-c2ccccc2)o1)c1c(N)n(Cc2ccccc2)c(=O)[nH]c1=O,7.93
10,NC(=O)CC(NC(=O)c1ccccc1)c1ccc(NCCN2CCCCC2)c([N+](=O)[O-])c1 (stereo not drawn),8.25
11,CC1C2(C)OCC(C#N)(C(=N)O2)C1(C#N)C#N (stereo not drawn),17.1
12,Cn1c(SCC(=O)NC2CCCCC2)nnc1-c1cc2cc(Cl)ccc2o1,13.8
13,CC(=O)OCC(=O)Nc1ccc(N=Nc2ccccc2)cc1,6.53
14,COc1ccc(NC(=O)CSCCc2ccccn2)cc1OC,19.3
15,Cc1n[nH]c(C)c1N=Nc1cc(Cl)ccc1Cl,12.8
16,COc1ccccc1N1CCN(Cc2cc3c(cc2Br)OCCO3)CC1,10.3
17,C=CCc1cccc(CNc2ccc(S(=O)(=O)Nc3nccnc3OC)cc2)c1O,14.4
18,CN1CCN(S(=O)(=O)c2ccc3c(c2)NC(=O)CS3)CC1,10.6
19,COc1ccc(C2CC(c3ccccc3)=NN2S(=O)(=O)c2ccc(C)cc2)c(OC)c1 (stereo not drawn),0.771
20,COc1ccc(CNc2ccc(S(N)(=O)=O)cc2)cc1,-2.4
21,Cc1ccc(S(=O)(=O)N2CCOCC2)cc1C(=O)N1CCOCC1,19
22,COc1cc(/C=N/NC(=O)c2cccs2)ccc1O,7.68

row,SMILES,"hERG current change (%, negative = inhibition) at 1uM [%]"
1,O=C(CSc1ncn[nH]1)Nc1c(F)cc(F)cc1Br,11.5
2,CC(=O)c1cccc(NC(=O)CSc2nnc(-c3cccnc3)o2)c1,-16
3,O=C(NCC1(N2CCOCC2)CCCCC1)c1cccc(S(=O)(=O)N2CCc3ccccc3C2)c1,9.1
4,CCN(CC)CCN1C(=O)C2C3c4ccccc4C(c4ccccc43)C2C1=O (stereo not drawn),8.61
5,Cc1cc(CN2CCN(CCC#N)CC2)c(O)c(C2(C)CCCCC2)c1,10.7
6,CCOc1ccccc1N1C(=O)CC(Nc2ccc(N3CCOCC3)cc2)C1=O (stereo not drawn),3.85
7,COc1ccccc1NC(=O)N(Cc1ccccc1)C1=NCC(C)S1 (stereo not drawn),12.7
8,Cn1cccc1C(C#N)c1ccccc1C#N (stereo not drawn),7.1
9,CC(C)(C)OC(=O)NCCCC1=CC2=CC(=O)C(C)(OC(=O)c3ccc(Cl)nc3)C(=O)C2=CO1 (stereo not drawn),5.19
10,CCC12CN3CC(CC)(CN(C1)C3c1ccc([N+](=O)[O-])o1)C2=O (stereo not drawn),-5.81
11,CC1=C(C(=O)OCc2ccc([N+](=O)[O-])cc2)N2C(=O)C(NC(=O)Cc3ccccc3)C2SC1 (stereo not drawn),17.2
12,CCOc1ccc2nc(SCC)[nH]c2c1.Cl,6.91
13,CN1CCN(c2ccc(S(=O)(=O)N3CCCCC3)cc2NC(=O)c2ccc3ccccc3c2)CC1,2.46
14,CCn1nnnc1NC(=O)c1cccc(OC)c1,4.7
15,COc1ccc(Cn2c(SCC#N)nc3ccc(N4CCOCC4)cc3c2=O)cc1,19.3
16,CCOC(=O)CN1C(=O)C(CC)Oc2ccccc21 (stereo not drawn),-4.75
17,COc1ccc(Cc2nnc(SCC(=O)Nc3ccc(C)cc3C)[nH]c2=O)cc1,-7.38
18,Cc1oc2cc(O)ccc2c(=O)c1-c1ccccc1,6.99
19,O=C(O)COc1ccc(Br)cc1/C=N\Nc1ccccn1,18.2
20,NC(=O)C(c1ccc(Cl)cc1)c1ccc(Sc2ccc(Cl)cc2)nn1 (stereo not drawn),8.85
21,O=C(c1ccco1)N1CCN(Cc2cc(=O)c(OCc3cccc(Cl)c3)co2)CC1,-22.1
